Laboratory results from the supplement of paper PMC3334620.
Over roughly 33,000 sequences, “E-score (-0.5 to 0.5)” has its median near -0.036; the highest 2% begin near 0.37. The list shows a part of the results.

What follows are sequences tested against T1, Yer064c (UniProt P40041) (assay: PBM E-score (8-mer binding enrichment) (E-score (-0.5 to 0.5)); higher = stronger / more preferred TF binding; most listed sequences are background and not binding sites). Details: protein concentration: 200 nM; construct: GST-full length.
T1 sequence: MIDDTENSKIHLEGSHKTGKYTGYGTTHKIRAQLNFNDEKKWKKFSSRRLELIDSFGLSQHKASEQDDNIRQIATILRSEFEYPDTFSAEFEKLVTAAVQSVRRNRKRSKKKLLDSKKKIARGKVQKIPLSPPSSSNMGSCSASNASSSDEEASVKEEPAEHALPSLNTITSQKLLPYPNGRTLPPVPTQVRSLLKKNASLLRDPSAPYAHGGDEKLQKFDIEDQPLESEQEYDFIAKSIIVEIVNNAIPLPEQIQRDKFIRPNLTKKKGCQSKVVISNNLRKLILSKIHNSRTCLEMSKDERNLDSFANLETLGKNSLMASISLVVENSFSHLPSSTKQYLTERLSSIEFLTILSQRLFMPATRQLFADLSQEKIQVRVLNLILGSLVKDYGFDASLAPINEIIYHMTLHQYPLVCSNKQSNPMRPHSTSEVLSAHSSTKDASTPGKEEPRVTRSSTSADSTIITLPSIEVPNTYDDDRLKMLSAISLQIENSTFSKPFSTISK
Outline: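 Full-length yeast transcription factors or their DNA-binding domains, GST-tagged and expressed with PURExpress, were applied at about 100-200 nM to universal all-10-mer Agilent arrays. These arrays had been made double-stranded by primer extension on fresh or once-stripped slides. Detection used fluorescent anti-GST, normalisation used masliner, and E-scores for ungapped eight-base words pooled with reverse complements came from the Universal PBM Analysis Suite.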

| Sequence | PBM E-score |
| --- | --- |
| ACAGACAG | 0.0442 |
| ACCAGTGG | -0.149 |
| ACTGTCGA | 0.0992 |
| GACGTCGA | -0.14 |
| GGCCTAAA | -0.164 |
| CCGATCTA | -0.021 |
| ACAGTGGT | -0.0809 |
| GGCGGGGA | -0.0153 |
| AACAGTGT | 0.035 |
| AGCCACAT | 0.156 |
| CGCGACAA | 0.124 |
| CCCATTTA | 0.0983 |
| CGACGATC | 0.086 |
| CACAAGCC | 0.0086 |
| ACGTCACT | -0.0404 |
| AGCATAGA | -0.214 |
| ATGCCCGA | -0.179 |
| CTCACTTC | -0.0699 |
| GATTTGGC | -0.0986 |
| CCTCTCGC | -0.149 |
| ATCGCAAT | 0.0912 |
| TAATATTA | 0.207 |

| Sequence | PBM E-score |
| --- | --- |
| CGGCGCAA | -0.235 |
| CCACATAA | -0.0479 |
| GCGCGAGA | -0.151 |
| CTTCTTTC | -0.0478 |
| TAGACCTA | -0.0284 |
| CGTCAAGA | -0.229 |
| CTCGGATA | 0.0525 |
| GCTTAAGC | -0.103 |
| CGTAAACC | -0.201 |
| ATGGGGTC | -0.192 |
| TGAGGTAA | -0.0357 |
| AAAGGAGG | -0.302 |
| CAATAATC | 0.276 |
| CGAGGGCC | -0.17 |
| ATGATCAT | 0.333 |
| ACGAACGT | -0.129 |
| CATAGACG | 0.132 |
| GATACACC | 0.0657 |
| AGGCCGGA | -0.0337 |
| GAAGTCTC | 0.145 |
| CGGAAACA | -0.254 |
| CATGTTAA | 0.124 |

| Sequence | PBM E-score |
| --- | --- |
| GAGGAATA | -0.0447 |
| ATCCCGAG | -0.011 |
| ATTAGGCC | 0.00222 |
| AATCATCG | 0.439 |
| GGGCGACA | -0.187 |
| GCCGCGAC | -0.00571 |
| TAGAATGA | 0.186 |
| ACTTTTTG | 0.0874 |
| GTACTACA | 0.17 |
| ACCAGTCC | -0.0297 |
| AGCTACTA | -0.207 |
| CACTTGAC | 0.146 |
| GACTTATC | 0.307 |
| AAGAGCCG | -0.199 |
| GGGCACGA | -0.21 |
| CGGTCCAC | -0.28 |
| GCCCCGGC | -0.208 |
| AGAGACGC | -0.212 |
| CGGTTGAA | 0.109 |
| GCTATGCA | -0.22 |
| AGTGGAGG | -0.15 |
| ATCGGAGG | 0.026 |

| Sequence | PBM E-score |
| --- | --- |
| ACATGCGG | -0.161 |
| ATTCTCAC | 0.0881 |
| ACGCCGTG | -0.125 |
| ACTGTAAT | 0.0302 |
| GTACAGGA | -0.0544 |
| ATCTACTC | 0.123 |
| CTAGAGCA | 0.0338 |
| AGATATGG | -0.0104 |
| CCCTGAAA | -0.0824 |
| CCTGTAAA | -0.0234 |
| AAAGCCAA | -0.119 |
| ACTTTTAA | 0.171 |
| CCACGAGC | -0.0744 |
| AGTTTCCC | 0.0328 |
| CGCGAAGA | 0.0335 |
| GATCGGGC | -0.237 |
| ACCGCGCT | -0.135 |
| ACTGCGGA | -0.0234 |
| ACTCAGCT | 0.216 |
| ATCTGCAA | 0.0565 |
